{"source": "PubChem BioAssay AID2107", "about": "(National Center for Advancing Translational Sciences (NCATS), 2009)", "note": "Out of some 240,000 compounds screened, about 20 (0.008%) were called active. Inconclusive means that the source gave no clear call. Such entries were picked first, then a sample of the others. Calls come from the whole dose curve; as a rule, active = well fitted inhibition curve with a large enough effect; inconclusive = small, poorly fitted or top-dose-only effect, or effect the other way; inactive = flat fitted curve, though single readings scatter. Potencies of inconclusive entries are left out as doubtful fits. Potency is the fitted concentration of half-maximal effect; tags give direction and shape of the fitted curve."}
{"target": "Alpha-galactosidase A (Homo sapiens) (UniProt P06280)", "sequence (P06280 whole entry, looked up)": "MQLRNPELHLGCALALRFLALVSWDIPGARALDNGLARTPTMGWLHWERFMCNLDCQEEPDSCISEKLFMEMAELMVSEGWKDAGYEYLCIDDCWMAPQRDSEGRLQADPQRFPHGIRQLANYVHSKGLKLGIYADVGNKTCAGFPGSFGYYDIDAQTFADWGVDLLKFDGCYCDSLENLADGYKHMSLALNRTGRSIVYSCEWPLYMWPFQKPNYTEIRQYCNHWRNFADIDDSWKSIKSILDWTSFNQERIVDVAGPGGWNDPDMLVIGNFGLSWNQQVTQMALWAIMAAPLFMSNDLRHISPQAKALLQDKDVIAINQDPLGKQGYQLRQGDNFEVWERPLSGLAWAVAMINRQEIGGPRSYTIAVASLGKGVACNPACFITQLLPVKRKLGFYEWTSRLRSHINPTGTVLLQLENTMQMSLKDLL", "experiment": "qHTS Assay for Inhibitors and Activators of Human alpha-Galactosidase From Spleen Homogenate;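 for activity change, negative = inhibition: 0% = enzyme with vehicle and -100% = no enzyme basal signal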", "details": "4MU-alpha-Gal fluorescence, 40 min; activity change, negative = inhibition: at 80 µM (top of the series)", "outline": "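Human spleen homogenate (1 ug) was the enzyme source, with 4-methylumbelliferyl-alpha-D-galactopyranoside (1 mM final) in pH 5.0 citrate buffer with 0.01% Tween-20. Compounds were titrated; after 40 min at 37C, NaOH/glycine stop, 4-MU fluorescence read; AC50 from Hill fits.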"}
{"smiles": "CC(C)c1onc(C(=O)N2CCC(C(N)=O)CC2)c1[N+](=O)[O-]", "activity change, negative = inhibition": "inactive: -4.68%"}
{"smiles": "CCn1cc(C(=O)NCc2ccco2)c2cc(OC)c(OC)cc2c1=O", "activity change, negative = inhibition": "inactive: 1.88%"}
{"smiles": "S=c1[nH]nc(Cc2ccccc2)n1-c1cccc2ccccc12", "activity change, negative = inhibition": "inactive: -0.538%"}
{"smiles": "O=C(Cc1cccs1)NCc1ccc2c(c1)OCO2", "activity change, negative = inhibition": "inactive: -13.3%"}
{"smiles": "COc1ccc(CCNC(=O)Cn2cnc3c(cnn3-c3ccccc3Cl)c2=O)cc1OC", "Potency": "inconclusive [activator, single point]"}
{"smiles": "N#Cc1c(N)n(CCc2ccc(F)cc2)c2nc3ccccc3nc12", "Potency": "inconclusive [activator, partial curve]"}
{"smiles": "Fc1ccc(N2N=C(c3cccs3)CC2c2ccccc2)cc1", "note": "(configuration not stated)", "Potency": "inconclusive [activator, partial curve]"}
{"smiles": "CC(C)OCCCn1c(=N)c(C(N)=S)cc2c(=O)n3ccccc3nc21", "Potency": "inconclusive [activator, single point]"}
{"smiles": "COc1ccc(C2CC(=O)C3=C(C2)Nc2ncnn2C3c2ccccc2)cc1", "note": "(configuration not stated)", "Potency": "inconclusive [activator, single point]"}
{"smiles": "C=CCn1c(N)cc(=O)nc1SCC(=O)N1CCN(c2ccc(F)cc2)CC1", "activity change, negative = inhibition": "inactive: 5.6%"}
{"smiles": "N#Cc1c(C(F)(F)F)cc(-c2ccc(Cl)cc2)[nH]c1=O", "Potency": "inconclusive [activator, partial curve]"}
{"smiles": "COc1ccc(-c2[nH]c(-c3ccc(C(=O)O)cc3)nc2-c2ccccc2)cc1", "Potency": "inconclusive [activator, partial curve]"}
{"smiles": "O=C(O)/C=C/c1ccc2noc(-c3ccccc3)c2c1", "activity change, negative = inhibition": "inactive: 8.52%"}
{"smiles": "CC(=O)N1N=C(c2cccc([N+](=O)[O-])c2)OC1(C)CC(=O)Nc1ccccc1", "note": "(configuration not stated)", "Potency": "inconclusive [inhibitor, partial curve]"}
{"smiles": "CN1CCC2(CC1)C1CN(C)CC=C1C(C#N)=C(N)C2(C#N)C#N", "note": "(configuration not stated)", "Potency": "inconclusive [activator, single point]"}
{"smiles": "O=c1cc(N2CCCCC2)c(-c2ccccc2)nn1Cc1ccccc1", "Potency": "inconclusive [inhibitor, single point]"}
{"smiles": "Cc1nc2ccccn2c1-c1ccnc(SCc2ccc(Cl)cc2)n1", "Potency": "inconclusive [activator, full curve, poor fit]"}
{"smiles": "O=C1OCCN1C(=O)[C@H]1[C@H](c2ccccc2)C(c2ccccc2)=NN1c1ccc(Br)cc1", "Potency": "inconclusive [activator, single point]"}
{"smiles": "CCC(=O)NCCCNc1nc2c(C)cccc2cc1C#N", "Potency": "inconclusive [activator, single point]"}
{"smiles": "Cc1ccc(NNC(=S)Nc2ccc(C(C)C)cc2)c(C)c1", "activity change, negative = inhibition": "inactive: 1.51%"}
{"smiles": "COc1cc(OC)cc(C(=O)Nc2cc(-c3cn4cccnc4n3)ccc2C)c1", "Potency": "inconclusive [activator, partial curve]"}
{"smiles": "CC1(C(=O)N(c2ccccc2)C(C(=O)NC2CCCC2)c2ccccn2)CC(=O)N=C2C=CC=CN21", "note": "(configuration not stated)", "Potency": "inconclusive [activator, partial curve]"}
{"smiles": "Cn1c(C(=O)O)cc2c(=O)n3ccccc3nc21", "Potency": "inconclusive [activator, partial curve]"}
{"smiles": "CCc1cc2c(=O)c(Oc3ccccc3)c(C)oc2cc1O", "Potency": "inconclusive [activator, single point]"}
{"smiles": "O=C(NCc1ccccn1)Nc1ccc(Cl)c(Cl)c1", "Potency": "inconclusive [inhibitor, single point]"}
{"smiles": "O=C(COC(=O)c1cccc(NS(=O)(=O)/C=C/c2ccccc2)c1)Nc1ccccc1OC(F)F", "activity change, negative = inhibition": "inactive: -1.47%"}
{"smiles": "Cc1ccc(OCCCC(=O)N2CCOCC2)c(C)c1", "Potency": "inconclusive [activator, full curve]"}
{"smiles": "O=C1c2ccccc2NC(c2cccnc2)N1c1ccccc1F", "note": "(configuration not stated)", "Potency": "inconclusive [activator, full curve]"}
{"smiles": "c1coc(CNc2nc(N3CCCCC3)nc3ccccc23)c1", "Potency": "inconclusive [activator, partial curve]"}
{"smiles": "CN1CCc2c(sc(/N=C/c3cccs3)c2C(N)=O)C1", "Potency": "inconclusive [activator, single point]"}
{"smiles": "N#CC1=C(N)Oc2c(ccc3cccnc23)C1c1cccnc1", "note": "(configuration not stated)", "Potency": "inconclusive [inhibitor, single point]"}
{"smiles": "O=C(O)c1c(-c2ccccc2)c2oc3ccccc3c2[nH]c1=O", "Potency": "inconclusive [activator, full curve, poor fit]"}
{"smiles": "COC(=O)C1=CN(Cc2ccc(OC)cc2)C=C(C(=O)OC)C1c1cccs1", "Potency": "inconclusive [activator, partial curve]"}
{"smiles": "CCOc1cc(-c2nc3ccccc3s2)ccc1O", "Potency": "inconclusive [activator, partial curve]"}
{"smiles": "Cc1ccc(S(=O)(=O)Nc2cccc(Oc3cnccn3)c2)cc1", "activity change, negative = inhibition": "inactive: -4.47%"}
{"smiles": "COc1cc2cc(CN(Cc3nnnn3Cc3ccco3)C3CCCCC3)c(=O)[nH]c2cc1OC", "Potency": "inconclusive [activator, single point]"}
{"smiles": "CCn1c2ccc(C)cc2c2nnc(NN)nc21", "activity change, negative = inhibition": "inactive: -11.3%"}
{"smiles": "Clc1ccccc1-c1nn2c(-c3ccncc3)nnc2s1", "activity change, negative = inhibition": "inactive: 0.836%"}
{"smiles": "O=C(O)c1ccc(C2CCCCC2)cn1", "Potency": "inconclusive [inhibitor, single point]"}
{"smiles": "COC(=O)C1=C(O)/C(=C\\c2cc(C)n(-c3ccc(F)cc3)c2C)N=C1C", "Potency": "inconclusive [inhibitor, partial curve, poor fit]"}
{"smiles": "Cc1cc(/C=N/NC(=O)Cn2c3ccccc3c(=O)c3ccccc32)c(C)n1-c1ccc(Cl)cc1", "Potency": "inconclusive [activator, partial curve]"}
{"smiles": "CC(C)CCC1=NN(C(=O)c2ccco2)C(O)(C(F)(F)F)C1", "note": "(configuration not stated)", "Potency": "inconclusive [inhibitor, partial curve, poor fit]"}
{"smiles": "Fc1ccc(C2=NN(c3ccccc3)C(c3ccco3)C2)cc1", "note": "(configuration not stated)", "Potency": "inconclusive [activator, partial curve]"}
{"smiles": "COCCN1C=C(C(=O)OC)C(c2ccccc2C(F)(F)F)C(C(=O)OC)=C1", "Potency": "inconclusive [activator, partial curve]"}
{"smiles": "CO[C@@H]1COC(=O)[C@@H](C)NC(=O)C/C=C\\[C@@H](C)[C@H](NS(=O)(=O)c2ccc(C)cc2)COC(=O)[C@H](C)NC(=O)C/C=C\\[C@H]1C", "activity change, negative = inhibition": "inactive: 5.15% [at 17.5 µM]"}
{"smiles": "C=CCn1c(N)c(C(=O)OCCC)c2nc3ccccc3nc21", "Potency": "inconclusive [activator, partial curve]"}
{"smiles": "CCN1/C(=C/c2cc[n+](C)cc2)C=Cc2cc(C)ccc21", "activity change, negative = inhibition": "inactive: -2.88%"}
{"smiles": "Cc1ccc(C)c(C(=O)Cn2ncc(Cl)c(Cl)c2=O)c1", "activity change, negative = inhibition": "inactive: 2.3%"}
{"smiles": "Cc1cnc(CNc2nc(-c3ccccc3C(F)(F)F)nc3ccccc23)cn1", "Potency": "inconclusive [inhibitor, partial curve, poor fit]"}
{"smiles": "COc1ccc(-c2cc(-c3ccc(N)cc3)nc(N)c2C#N)cc1OC", "Potency": "inconclusive [activator, single point]"}
{"smiles": "Cc1c(Br)c([N+](=O)[O-])nn1CC(=O)Nc1ccc(Cc2ccncc2)cc1", "activity change, negative = inhibition": "inactive: -4.24%"}
{"smiles": "O=C(NC(N1CCOCC1)C(Cl)(Cl)Cl)c1cc([N+](=O)[O-])cc([N+](=O)[O-])c1", "note": "(configuration not stated)", "Potency": "inconclusive [activator, single point]"}
{"smiles": "COc1cc(O)c2c(c1)C(=O)c1cc(C)cc(O)c1C2=O", "Potency": "inconclusive [inhibitor, single point]"}
{"smiles": "CCN=C1S/C(=C\\c2cn(C(C)=O)nc2-c2ccccc2)C(=O)N1CC", "Potency": "inconclusive [inhibitor, single point]"}
{"smiles": "S=C(Nc1ccccc1)N1CCCCCC1", "Potency": "inconclusive [activator, partial curve, poor fit]"}
{"smiles": "O=C(O)CCS(=O)(=O)c1cc(Br)cc2c1N(C(=O)C1CC1)CC2", "Potency": "inconclusive [inhibitor, partial curve]"}
{"smiles": "N#CC1=C(N2CCCCC2)c2cc3c(n2C1=O)CCCC3", "activity change, negative = inhibition": "inactive: 1.92%"}
{"smiles": "CSCC[C@H](NC(=O)[C@H](Cc1ccc(OS(=O)(=O)O)cc1)NC(=O)[C@@H](N)CC(=O)O)C(=O)NCC(=O)N[C@@H](Cc1c[nH]c2ccccc12)C(=O)N[C@@H](CCSC)C(=O)N[C@@H](CC(=O)O)C(=O)N[C@@H](Cc1ccccc1)C(N)=O", "activity change, negative = inhibition": "inactive: -26.8%"}
{"smiles": "N/C(=N\\OC(=O)COc1ccc(Cl)cc1)c1cccnc1", "Potency": "inconclusive [inhibitor, single point]"}
{"smiles": "COc1ccc(C(=O)/C=C2/c3ccccc3CC(C)(C)N2C)cc1OC", "Potency": "inconclusive [inhibitor, single point]"}
{"smiles": "CCCc1cc(=O)oc2c(CN3CCCC3)c(O)c(Cl)cc12", "Potency": "inconclusive [activator, partial curve]"}
{"smiles": "N=c1oc2cc(O)ccc2cc1C(=O)Nc1nc2ccccc2s1", "Potency": "inconclusive [activator, partial curve]"}
{"smiles": "O=C(CN1CCC(O)(c2ccccc2F)CC1)NCCc1c[nH]c2ccccc12", "Potency": "inconclusive [activator, single point]"}
{"smiles": "CCOc1ncccc1C(=O)OCc1nnc(-c2ccccc2)o1", "activity change, negative = inhibition": "inactive: -7.75%"}
{"smiles": "Cc1ccc(Oc2nc3ccccc3n3c(C)nnc23)cc1", "Potency": "inconclusive [inhibitor, single point]"}
{"smiles": "CC1=C(CC(=O)O)c2cc(F)ccc2/C1=C\\c1ccc(S(C)(=O)=O)cc1", "Potency": "inconclusive [inhibitor, full curve]"}
{"smiles": "COc1cc(OC)cc(C(=O)NC2CCN(Cc3nnnn3Cc3cccs3)CC2)c1", "activity change, negative = inhibition": "inactive: -0.33%"}
